From the supplement of paper PMC11181314
The list shows a part of the results. Single values of this set are uncertain.

System: U2OS
Assay: Cell Painting induction (percent of morphological features significantly changed vs DMSO); higher = stronger morphological change
Settings: 10 µM, 20 h
Experimental: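 Cell Painting assay in U2OS cells: compounds at 10 µM for 20 h, six dyes, 579 robust CellProfiler features as Z-scores vs DMSO median (MAD). Induction is the % of significantly changed features (active if ≥5%); relative cell count is in % of DMSO. The primary run holds DCM compounds preselected for induction ≥10%; the confirmation repeat defines active compounds (370 of 549). Replicate agreement is low, attributed to precipitation.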

[1] = run: primary screen (compounds selected for induction >=10%)
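Note: stains mark DNA, RNA and nucleoli, ER, actin, Golgi, plasma membrane and mitochondria, read by high-content imaging, with DMSO controls at matching solvent concentration.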

| Compound | Cell Painting induction (run: confirmation repeat) | Cell Painting induction [1] [%] |
| --- | --- | --- |
| O=C(Cn1c(O)c(/N=N/C(=O)c2ccncc2)c2ccccc21)Nc1ccccc1 | inactive: 0% | 15.5 |
| CC(C)CC(=O)N1c2ccccc2N=C2CC(C)(C)CC(O)=C2C1c1ccc(N(C)C)cc1 (configuration not stated) | active: 13.3% | 10.7 |
| Cc1ccc(-n2nc3c(=O)n(CCCC(=O)N4CCC(C)CC4)nc(C)c3c2C)cc1 | active: 14.7% | 11.7 |
| CCCN1CCN(CCCNC(=O)C(CC)n2nc(C)n3c(cc4occc43)c2=O)CC1 (configuration not stated) | active: 12.6% | 17.6 |
| CN(C1CCCCC1)S(=O)(=O)c1ccc2c(c1)c(=O)c(C(=O)N1CCc3ccccc3C1)cn2C | inactive: 0% | 27.3 |
| COC(=O)c1ccccc1NC(=O)c1cccc(NC(=O)C(C)C)c1 | active: 7.6% | 18.5 |
| COc1cc(C(=O)OCCNC(=O)c2ccccc2)cc(OC)c1OC | inactive: 3.3% | 16.2 |
| CCN1CCN(C(c2cccs2)C(C)NC(=O)c2cccc(OC)c2)CC1 (configuration not stated) | active: 13.1% | 26.4 |
| CC(C)N(CCNC(=O)c1ccc(CS(=O)(=O)c2c(Cl)cccc2Cl)o1)Cc1ccccc1 | active: 23.3% | 28.7 |
| O=C(Cc1c(F)cccc1Cl)Nc1ccc(S(=O)(=O)N2CCCC2)cc1 | inactive: 1.7% | 17.3 |
| COc1cc(NC(=O)c2cc(-c3ccc(C)cc3)on2)cc(OC)c1OC | inactive: 3.6% | 12.3 |
| CSc1cccc(NC(=S)N(CCC(C)C)C(C)c2ccncc2)c1 (configuration not stated) | inactive: 1.6% | 10.5 |
| CCCCSCCCNC(=O)c1ccc(CNS(=O)(=O)c2ccc(F)cc2)cc1 | active: 43.2% | 38.2 |
| CCOCCn1c(=O)c2c(nc3n2CCN3c2ccc(CC)cc2)n(C)c1=O | inactive: 1% | 16.1 |
| CCCCN(CCCC)CCCNC(=O)c1ccc2nc(-c3ccccc3NC(C)=O)c(O)nc2c1 | active: 30.2% | 17.6 |
| CCOc1ccc(-n2c(SCC(=O)Nc3ccccc3CC)nc3nnc(C)c-3c2N)cc1 | inactive: 0% | 20.4 |
| Cc1nn(C)c(C)c1S(=O)(=O)N(CC(=O)NCCCN1CCC(C)CC1)c1ccc(C(C)C)cc1 | active: 30.9% | 25.7 |
| Cc1c(C(=O)Nc2ccc(F)cc2)oc2ccc(S(=O)(=O)N3CCCC3)cc12 | active: 30.6% | 27.8 |
| Cc1nn2c(N3CCOCC3)cc(C(C)C)nc2c1-c1ccccc1 | inactive: 0% | 24.4 |
| CN(C)CCCNc1oc(-c2ccccc2Cl)nc1S(=O)(=O)c1ccccc1 | active: 56.6% | 45.9 |
| Cc1c(/C=N/N=C2\CCC3C4CCc5cc(O)ccc5C4CCC23C)cnn1C (configuration not stated) | inactive: 3.8% | 17.6 |
| COc1ccc(-c2noc(N3CCC(C(=O)Nc4cc(OC)c(OC)c(OC)c4)CC3)n2)cc1 | active: 14.3% | 24.2 |
| Cc1c(C(=O)NC2CCCc3ccccc32)oc2ccc(S(=O)(=O)N3CCCC3)cc12 (configuration not stated) | inactive: 4.8% | 43.2 |
| COc1ccc(N2CCN(CCNC(=O)Nc3cc(Cl)ccc3Cl)CC2)cc1 | inactive: 3.1% | 26.1 |
| CCc1nc2ccc(C(=O)NCCCN3CCN(c4ccccc4F)CC3)cc2nc1CC | active: 51.3% | 45.8 |
| CCc1c(C)c(C#N)c2nc3ccccc3n2c1NCCCN(C)C | inactive: 0.3% | 20.4 |

| Compound | Cell Painting induction (run: confirmation repeat) | Cell Painting induction [1] [%] |
| --- | --- | --- |
| CCCN1CCN(CCCNC(=O)c2ccccc2NC(=O)C2=C(C)OCCS2)CC1 | inactive: 0.9% | 15.4 |
| CCn1cc(C(=O)NC2CCCCCC2)c(=O)c2cc(S(=O)(=O)N3CCCCC3)ccc21 | inactive: 0.3% | 24.2 |
| CC1=C(C(=O)OC2CCCC2)C(c2coc3ccc(C)cc3c2=O)C2=C(O)CCCC2=N1 (configuration not stated) | inactive: 0% | 10.5 |
| COc1ccc(Nc2nc(NCc3ccc(C)cc3)nc3c2cnn3C)cc1 | active: 22.6% | 11.4 |
| COc1ccc(N2C(=S)NC3c4cc(Cl)ccc4OC2(C)C3C(=O)N(C)C)cc1 (configuration not stated) | active: 20.7% | 20.4 |
| C/N=C1\SC(C(=O)Nc2ccccc2Cl)CC(=O)N1c1ccc(OC(F)(F)Cl)cc1 (configuration not stated) | inactive: 1.7% | 21.1 |
| CC1=C(C(=O)Nc2cc(C(=O)N3CCN(c4cccc(C)c4)C(C)C3)ccc2C)SCCO1 (configuration not stated) | active: 11.6% | 17.6 |
| CCOc1cccc(C(=O)Nc2ccc3oc(-c4cccnc4)nc3c2)c1 | active: 71.3% | 59.6 |
| CC(C)(C)OC(=O)N1CCC(c2c(C(=O)N3CCN(C4CCCCC4)CC3)cnn2-c2ccc(F)cc2)CC1 | inactive: 1.2% | 19.5 |
| COc1ccc(NC(=O)c2cc(S(=O)(=O)N3CCOCC3)cn2C)cc1Cl | inactive: 4.7% | 13.6 |
| COc1cccc(OC)c1C(=O)Nc1ccc2c(c1)CCCN2S(=O)(=O)c1ccc(C)cc1 | active: 29.5% | 24 |
| CCc1ccc(-c2cc(C)no2)cc1S(=O)(=O)NCCN1CCC(C)CC1 | active: 30.1% | 30.7 |
| CCN(CC)CCCNC(=O)c1cc2nc(-c3ccccc3)cc(C(F)(F)F)n2n1 | inactive: 0.2% | 18.7 |
| CC(C)(C)c1cc(N2CCOCC2)n2ncc(-c3ccc(Cl)cc3)c2n1 | active: 5.9% | 24.9 |
| COc1ccc(-c2cnnn2-c2ccc(NC(=O)/C=C/c3ccc(OC)c(OC)c3)cc2)cc1 | active: 12.8% | 10.4 |
| CCN(Cc1ccccc1)C(=O)Cn1c(=O)n(-c2ccc(OC)cc2OC)c(=O)c2c(C)c(C)sc21 | inactive: 4.5% | 17.6 |
| COc1ccccc1N1CCN(C(CNS(=O)(=O)c2ccccc2)c2ccccc2)CC1 (configuration not stated) | active: 24.4% | 31.3 |
| COc1ccccc1N1CCN(C(=O)C2CCC(CNS(=O)(=O)c3ccc(NC(C)=O)cc3)CC2)CC1 (configuration not stated) | active: 32.1% | 37.3 |
| COc1ccc(-n2ncc(C(=O)Nc3ccc(OC(F)(F)F)cc3)c2C2CCNCC2)cc1 | active: 67% | 49.2 |
| COc1ccccc1CNc1ncnc2c1cnn2-c1ccc(Cl)cc1 | active: 28% | 28.5 |
| N/C(=N\C(=O)/C=C/c1ccccc1)Nc1nc2ccccc2o1 | active: 16.8% | 12.1 |
| CN1CCN(C(=O)CCN2C(=O)/C(=C/c3ccc(Cl)cc3)SC2=S)CC1 | inactive: 2.2% | 27.3 |
| COc1ccc(-c2c(C)nn3c(N4CCC5(CC4)OCCO5)cc(C)nc23)cc1OC | active: 13.1% | 11.2 |
| CCCN(CCC)CCCNC(=O)CNC(=O)c1nn(-c2ccc(OC)cc2)c(=O)c2ccccc12 | inactive: 3.3% | 13.3 |
| COc1cccc(-c2cc(C(=O)Nc3cccnc3)c3ccccc3n2)c1 | active: 10.7% | 20 |
| COc1ccccc1NC(=O)c1cc2c(CO)cnc(C)c2o/c1=N\c1cc(OC)c(OC)c(OC)c1 | inactive: 2.9% | 15 |

| Compound | Cell Painting induction (run: confirmation repeat) | Cell Painting induction [1] [%] |
| --- | --- | --- |
| Cc1ccc(CCNC(=O)CN(c2cc(C)cc(C)c2)S(=O)(=O)c2c(C)noc2C)cc1 | active: 13.3% | 18.1 |
| O=S(=O)(NCC(c1ccco1)N1CCN(c2ccccc2F)CC1)c1ccc2c(c1)OCCO2 (configuration not stated) | active: 12.4% | 15.9 |
| O=C(CN1C(=O)/C(=C/c2ccccc2)Sc2ccccc21)NCCCN1CCOCC1 | active: 19.7% | 15.4 |
| CCO/C(O)=C1\C(C)=Nc2nc3ccccc3n2C1c1cc(OC)c(OC)cc1OC (configuration not stated) | active: 5% | 10.4 |
| COc1ccc(-n2nnc3c(=O)n(Cc4ccccc4C)cnc32)cc1 | inactive: 0% | 11.6 |
| CC1CCCN(CCCNC(=O)c2cn(C)c3ccc(S(=O)(=O)N(C)C4CCCCC4)cc3c2=O)C1 (configuration not stated) | active: 76.5% | 57.9 |
| CC(C)(C)c1cc(S(=O)(=O)CCc2ccncc2)cc(C(C)(C)C)c1F | active: 31.6% | 44.7 |
| COC(CNC(=O)c1ccc2c(=O)n(Cc3ccc(Cl)cc3)c(=S)[nH]c2c1)OC | active: 46.6% | 40.6 |
| OC(c1ccccc1)(c1ccccc1)C1CCN(C(=S)NCCc2ccccc2)CC1 | active: 13.6% | 11.9 |
| COc1ccccc1N1CCN(C(=O)C2CCN(S(=O)(=O)c3ccc4c(c3)CC(C)N4C(C)=O)CC2)CC1 (configuration not stated) | active: 24.5% | 25.2 |
| CCOc1ccccc1Nc1nc2c(S(=O)(=O)c3ccccc3)nnn2c2ccccc12 | inactive: 0.2% | 20.9 |
| CC1CCN(S(=O)(=O)c2ccc3c(c2)N(CC(=O)NCCCN2CC(C)CC(C)C2)C(=O)CS3)CC1 (configuration not stated) | active: 51.8% | 53.7 |
| COc1ccc(CNC(=O)c2cc3cc(OC)ccc3oc2=O)cc1 | active: 37% | 31.4 |
| O=C(Nc1ccc2nc3n(c(=O)c2c1)CCCCC3)C(=O)N1CCN(c2ccc(F)cc2)CC1 | inactive: 0.2% | 20.2 |
| CCCCN(CCCC)CC(O)CN(c1ccccc1)S(=O)(=O)c1ccc(C)cc1 (configuration not stated) | active: 55.4% | 43.5 |
| CCCn1c2ccccc2c2cnn(CC(=O)NC3CCN(Cc4ccccc4)CC3)c(=O)c21 | active: 28.7% | 30.2 |
| COc1ccccc1S(=O)(=O)Cc1ccc(C(=O)NCCCN2CCN(c3ccc(F)cc3)CC2)o1 | active: 36.1% | 46.5 |
| COc1ccc2nc(C)cc(Nc3ccccc3OC)c2c1 | active: 25.6% | 23.1 |
| Cc1cccc(C)c1NC(=O)C1(N(Cc2ccco2)C(=O)Cn2nnnc2N)CCCCC1 | active: 15% | 19.3 |
| Cc1nc2nc(SCC(=O)NCCCN3CCCCC3)nn2c(C)c1Cc1ccccc1 | inactive: 4.1% | 15.9 |
| O=S(=O)(NC1CCCCC1N1CCN(c2ccc(F)cc2)CC1)c1ccccc1 (configuration not stated) | active: 18.5% | 18.7 |
| CC(NC(=O)c1cn(C)c2ccc(S(=O)(=O)N3CCCC3)cc2c1=O)c1ccccc1 (configuration not stated) | inactive: 1.4% | 13.5 |
| O=C(CCc1nnc2ccc(N3CCCCC3)nn12)NCC1CCN(Cc2ccc(F)cc2)CC1 | active: 30.2% | 20.7 |
| CC1CCCN(CCCNC(=O)c2ccc(CS(=O)(=O)c3c(Cl)cccc3Cl)o2)C1 (configuration not stated) | active: 16.6% | 26.8 |
